Hit rate of the full screen: of about 360,000 compounds, about 16,000 (4.4%) were called active. Inconclusive results, whose numbers are uncertain, are shown with a selection of clear calls. Calls follow the shape of the dose curve; as a rule, active = well fitted inhibition curve with a large enough effect; inconclusive = small, poorly fitted or top-dose-only effect; inactive = no such curve, though single readings can be large or run the other way. Where the call is inconclusive, the potency comes from a doubtful curve fit.
These compounds were tested against Bromodomain adjacent to zinc finger domain protein 2B (Homo sapiens) (UniProt Q9UIF8) (assay: qHTS Assay for Inhibitors of BAZ2B). Settings: AlphaScreen BAZ2B-H3K14Ac peptide displacement; activity change, negative = inhibition: at 114 µM (top of the series).
UniProt Q9UIF8, sequence (Q9UIF8 whole entry, looked up, the tested form may be a part): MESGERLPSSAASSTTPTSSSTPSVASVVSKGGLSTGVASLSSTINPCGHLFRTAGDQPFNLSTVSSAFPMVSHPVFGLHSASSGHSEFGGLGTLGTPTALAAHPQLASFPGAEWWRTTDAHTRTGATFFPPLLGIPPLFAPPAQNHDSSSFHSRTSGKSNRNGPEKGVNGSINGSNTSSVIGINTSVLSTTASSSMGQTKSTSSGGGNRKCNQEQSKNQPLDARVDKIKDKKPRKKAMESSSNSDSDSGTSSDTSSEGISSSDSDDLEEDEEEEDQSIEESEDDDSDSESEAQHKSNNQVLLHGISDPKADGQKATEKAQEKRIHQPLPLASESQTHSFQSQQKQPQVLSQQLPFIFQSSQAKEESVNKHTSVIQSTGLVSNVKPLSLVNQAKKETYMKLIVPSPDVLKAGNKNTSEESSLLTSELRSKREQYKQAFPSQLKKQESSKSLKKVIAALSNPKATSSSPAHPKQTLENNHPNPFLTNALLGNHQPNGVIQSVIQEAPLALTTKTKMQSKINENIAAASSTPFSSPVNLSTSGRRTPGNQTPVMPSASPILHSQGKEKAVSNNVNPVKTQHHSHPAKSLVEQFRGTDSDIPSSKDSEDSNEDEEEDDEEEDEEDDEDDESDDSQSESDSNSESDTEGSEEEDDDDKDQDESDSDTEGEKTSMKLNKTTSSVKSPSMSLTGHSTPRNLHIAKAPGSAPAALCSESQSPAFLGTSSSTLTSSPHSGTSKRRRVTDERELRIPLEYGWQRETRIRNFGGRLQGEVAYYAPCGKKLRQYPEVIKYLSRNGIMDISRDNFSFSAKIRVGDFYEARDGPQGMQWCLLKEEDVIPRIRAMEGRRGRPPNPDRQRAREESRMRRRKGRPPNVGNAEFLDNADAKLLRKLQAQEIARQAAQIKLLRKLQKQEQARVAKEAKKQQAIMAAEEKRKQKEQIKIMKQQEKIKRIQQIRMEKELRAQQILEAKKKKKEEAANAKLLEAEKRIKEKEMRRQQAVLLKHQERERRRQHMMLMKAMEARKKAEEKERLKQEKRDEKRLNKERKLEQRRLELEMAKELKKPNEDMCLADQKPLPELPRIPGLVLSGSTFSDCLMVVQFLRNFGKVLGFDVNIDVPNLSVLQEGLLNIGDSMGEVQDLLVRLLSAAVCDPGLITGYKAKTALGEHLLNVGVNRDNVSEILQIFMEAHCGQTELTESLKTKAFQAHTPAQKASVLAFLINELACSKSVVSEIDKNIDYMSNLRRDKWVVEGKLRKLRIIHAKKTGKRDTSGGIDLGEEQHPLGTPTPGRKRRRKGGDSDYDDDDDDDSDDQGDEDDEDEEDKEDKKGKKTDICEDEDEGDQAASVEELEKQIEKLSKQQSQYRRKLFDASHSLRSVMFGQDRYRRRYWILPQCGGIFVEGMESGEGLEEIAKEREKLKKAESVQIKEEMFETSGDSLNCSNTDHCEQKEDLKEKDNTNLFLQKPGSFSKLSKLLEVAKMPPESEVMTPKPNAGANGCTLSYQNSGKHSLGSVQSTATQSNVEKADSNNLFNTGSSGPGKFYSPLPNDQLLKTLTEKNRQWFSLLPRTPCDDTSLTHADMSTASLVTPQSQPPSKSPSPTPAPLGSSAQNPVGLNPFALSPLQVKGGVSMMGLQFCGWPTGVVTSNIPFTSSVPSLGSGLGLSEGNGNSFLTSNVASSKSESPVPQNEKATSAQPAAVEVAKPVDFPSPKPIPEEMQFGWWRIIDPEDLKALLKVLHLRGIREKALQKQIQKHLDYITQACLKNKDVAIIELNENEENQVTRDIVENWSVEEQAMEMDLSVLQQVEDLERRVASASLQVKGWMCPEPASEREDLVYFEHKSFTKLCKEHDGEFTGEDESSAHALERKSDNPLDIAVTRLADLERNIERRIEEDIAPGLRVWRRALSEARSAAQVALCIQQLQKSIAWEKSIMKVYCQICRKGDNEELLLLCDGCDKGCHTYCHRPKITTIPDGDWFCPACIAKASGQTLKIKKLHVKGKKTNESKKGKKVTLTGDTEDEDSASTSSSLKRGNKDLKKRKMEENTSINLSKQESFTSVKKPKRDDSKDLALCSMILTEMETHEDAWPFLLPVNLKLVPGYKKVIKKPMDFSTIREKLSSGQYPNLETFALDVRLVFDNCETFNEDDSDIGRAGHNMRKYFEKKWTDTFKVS
In short: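 AlphaScreen displacement: compounds (up to 110uM) incubated 30 min at room temperature with a preformed 50 nM BAZ2B/50 nM biotinylated H3K14Ac peptide complex in PBS pH 7.4 with Tween-20. Donor and acceptor beads at 10 ug/mL final added, 20 min light-protected before reading.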
For `COc1cccc(-c2nn(-c3ccccc3)cc2/C=C\C(=O)c2cccs2)c1`, the Potency was inconclusive: 11.2 µM [inhibitor, partial curve, poor fit].
`O=C(N/N=C/c1cc([N+](=O)[O-])cc([N+](=O)[O-])c1O)/C(=C\c1cccs1)NC(=O)c1ccccc1` was tested, and the Potency was inconclusive: 79.4 µM [inhibitor, single point].
For `O=C(NNc1ccccc1[N+](=O)[O-])Nc1ccc(F)cc1F`, the “activity change, negative = inhibition” value was inactive: -15%.
`Cc1ccc(/C=N/NC(=O)c2ccc3ccccc3c2)s1` was tested, and the “activity change, negative = inhibition” value was inactive: -21.4%.
With `Cc1ccc(NC(=O)CCNS(=O)(=O)c2ccc3[nH]c(=O)oc3c2)c(C)c1` the “activity change, negative = inhibition” value was inactive: -6%.
For `O=C(NCc1ccccn1)c1ccc(=O)oc1`, the Potency was active: 6.31 µM.
For `Cc1ccc(-c2cn3c4c(=O)n(C)c(=O)n(C)c4nc3n2-c2cccc(Cl)c2)cc1`, the “activity change, negative = inhibition” value was inactive: -0.959%.
With `O=[N+]([O-])c1ccc(-c2cc(-c3ccncc3)nc3ccc4ccccc4c23)cc1` the Potency was inconclusive: 63.1 µM [inhibitor, partial curve, poor fit].
`CC(C)C(Nc1ccc(S(=O)(=O)N2CCOCC2)cc1[N+](=O)[O-])C(=O)O` (stereo not drawn) was tested, and the Potency was inconclusive: 79.4 µM [inhibitor, single point].
For `Cc1ccc(CNC(=O)COC(=O)c2ccc(S(=O)(=O)N3CCCC3)cc2)cc1`, the “activity change, negative = inhibition” value was inactive: 4.02%.
With `COc1cc(NC(=O)CN(C)S(=O)(=O)c2ccc3c(c2)CC(C)N3C(C)=O)cc(OC)c1OC` (stereo not drawn) the “activity change, negative = inhibition” value was inactive: -31.1%.
In the case of `O=C1CCCc2c1cc(C(=O)NCc1ccco1)c(=O)n2-c1ccc(Cl)cc1`, the “activity change, negative = inhibition” value is reported as inactive: -1.72%.
In the case of `Cc1ccc(NC(=O)CSc2nnc(-c3cc4occc4n3C)n2-c2ccccc2C)cc1F`, the “activity change, negative = inhibition” value is reported as inactive: -33.2%.
`CCOC(=O)CN(C)C(=O)CCc1nnc(-c2ccsc2)o1` was tested, and the Potency was inconclusive: 89.1 µM [inhibitor, single point].
In the case of `O=C1C(c2ccc(C(F)(F)F)cc2)=C(Nc2ccc(Cl)cc2)c2ccccc21`, the “activity change, negative = inhibition” value is reported as inactive: -21.8%.
In the case of `COc1cc(C2c3c(c(C)c(C)oc3=O)Oc3c(C)c(C)oc(=O)c32)ccc1OS(=O)(=O)c1ccc(C)cc1`, the “activity change, negative = inhibition” value is reported as inactive: 6.57%.
In the case of `COc1ccc(S(=O)(=O)n2nc(OC(=O)c3c(-c4ccccc4Cl)noc3C)cc2N)cc1`, the “activity change, negative = inhibition” value is reported as inactive: -38.4%.
In the case of `COc1ccccc1NC1=C(NC(C)=O)C(=O)c2ccccc2C1=O`, the Potency is reported as inconclusive: 50.1 µM [inhibitor, partial curve].
In the case of `Cc1cccc(-c2cc(NC(=O)COc3ccccc3F)n(-c3ccccc3)n2)c1`, the “activity change, negative = inhibition” value is reported as inactive: 6.54%.
For `COc1ccc(CNC(=O)C/C(C)=N/NC(=O)COc2ccc(Br)cc2)cc1`, the Potency was inconclusive: 89.1 µM [inhibitor, single point].
In the case of `COc1cc(/C=N/Nc2ccccc2[N+](=O)[O-])cc(OC)c1O`, the Potency is reported as inconclusive: 12.6 µM [inhibitor, partial curve].
In the case of `COc1ccc(N2CCN(c3cc(C)nc4ccc(OC)cc34)CC2)cc1`, the Potency is reported as active: 31.6 µM.
For `Cc1ccc(C(CC(=O)Nc2ccc(C)cc2C)N2Cc3ccccc3C2=O)cc1` (stereo not drawn), the Potency was inconclusive: 89.1 µM [inhibitor, single point].
`CCOC(=O)c1c(NC(C)=O)c2c3c(sc2n1Cc1cccc(Cl)c1)CCCC3` was tested, and the “activity change, negative = inhibition” value was inactive: -21.9%.
With `CCOc1cccc(SCc2noc(C(=O)NCC3CCCO3)c2C(=O)O)c1` (stereo not drawn) the Potency was inconclusive: 70.8 µM [inhibitor, single point].
In the case of `C=CCN(CC=C)CC(O)CN(c1cc([N+](=O)[O-])ccc1OC)S(=O)(=O)c1ccccc1` (stereo not drawn), the “activity change, negative = inhibition” value is reported as inactive: -2.46%.
For `Cn1nnc(NC(=S)NC(=O)c2cccs2)n1`, the Potency was inconclusive: 79.4 µM [inhibitor, single point].
In the case of `Cc1ccc(C(=O)Nc2ccccc2N2CCCCC2)o1`, the “activity change, negative = inhibition” value is reported as inactive: 8.1%.
For `CC(C)(C)n1nnnc1C(c1ccncc1)N1CCN(c2ccc(O)cc2)CC1` (stereo not drawn), the “activity change, negative = inhibition” value was inactive: -10.1%.
For `CN1C2C=C3C(C#N)=C(N)C(C#N)(C#N)[C@H](c4c(F)cccc4F)[C@H]3C1CC2` (stereo partly drawn), the Potency was inconclusive: 89.1 µM [inhibitor, single point].
In the case of `CCn1c2ccccc2c2cc(/C=N/n3cn[nH]c3=S)ccc21`, the Potency is reported as inconclusive: 44.7 µM [inhibitor, partial curve].
`CCOC(=O)c1cccc(NC(=O)C2CCN(c3nnc(C)c4c(C)n(-c5ccccc5)nc34)CC2)c1` was tested, and the “activity change, negative = inhibition” value was inactive: -24%.
For `O=C(Nc1nccs1)c1ccc(N2C(=O)C3CCCCC3C2=O)cc1` (stereo not drawn), the Potency was inconclusive: 79.4 µM [inhibitor, single point].
`CC(C)c1ccc(/C=N/NC(=O)c2nnn(-c3nonc3N)c2CN2CCOCC2)cc1` was tested, and the Potency was inconclusive: 89.1 µM [inhibitor, single point].
In the case of `CC(C)c1ccc(C(=O)OC2CCOC2=O)cc1` (stereo not drawn), the Potency is reported as inconclusive: 79.4 µM [inhibitor, single point].
`CCCCCOc1ccc2oc(=O)c3c(c2c1)CCCN3C(=O)CN1CCCC(C(=O)OCC)C1` (stereo not drawn) was tested, and the “activity change, negative = inhibition” value was inactive: -16.9%.
In the case of `O=C1c2ccccc2C(=O)N1OCCOCCOCCBr`, the Potency is reported as inconclusive: 39.8 µM [inhibitor, single point].
For `Clc1ccc(-c2nnc(-c3ccc(Br)cc3)c(N3CCSCC3)n2)cc1`, the Potency was inconclusive: 79.4 µM [inhibitor, partial curve, poor fit].
For `CN(C(=S)NCCN1CCOCC1)C(c1ccccc1)c1ccccc1`, the Potency was active: 50.1 µM.
In the case of `O=c1[nH]c(-c2ccccn2)nc(C(F)(F)F)c1Br`, the Potency is reported as active: 28.2 µM.
For `Cc1ccc(C(=O)Nc2nnc(SCc3cc(=O)n4ccc(C)cc4n3)s2)cc1`, the “activity change, negative = inhibition” value was inactive: 5.59%.
With `O=C(Cn1nc2c(cc1=O)CCCC2)NCc1ccccc1Cl` the “activity change, negative = inhibition” value was inactive: 2.84%.
`Cc1ccccc1NC(=S)N(CCN(C)C)C(C)c1ccccn1` (stereo not drawn) was tested, and the Potency was inconclusive: 56.2 µM [inhibitor, partial curve, poor fit].
For `Cc1nc(SCC(=O)N2CCN(c3ccccc3)CC2)c2oc3ccccc3c2n1`, the Potency was inconclusive: 79.4 µM [inhibitor, single point].
In the case of `Cc1ccc(NC(=O)Nc2cccc3ccccc23)cc1`, the “activity change, negative = inhibition” value is reported as inactive: 19.2%.
For `CCOC(=O)c1ncn2c1C(=O)OC2(C)C`, the Potency was inconclusive: 89.1 µM [inhibitor, single point].
With `Cc1cc(NCc2ccccn2)nc2ccccc12` the “activity change, negative = inhibition” value was inactive: -4.44%.
In the case of `Clc1ccc(/C=N/N2CCN(Cc3ccccc3Cl)CC2)cc1`, the Potency is reported as active: 35.5 µM.
% is scaled to controls: 0 for no effect and ±100 for the full control effect; potency is read from the fitted curve at half-maximal effect; tags tell the direction and shape of the fitted curve.
Also: nearly all actives have a fitted effect of over 60% in size.
